# Data taken from the antibiotic and cytotoxicity screens of Wong et al. (2023).
# The list shows a part of the results.
# System: HepG2
# Experiment: cytotoxicity call (relative viability < 0.9)
# Settings: 10 µM
row,SMILES,cytotoxicity call
1,CN1CCN(C2=Nc3ccccc3Oc3ccc(Cl)cc32)CC1.O=C(O)CCC(=O)O,inactive
2,Nc1cc(=O)nc2sc(C3CC3)nn12,inactive
3,CCC(=O)NO,inactive
4,C[C@H]1CN([C@@H](C)CO)C(=O)c2cc(C#CCN(C)C)cnc2O[C@@H]1CN(C)S(C)(=O)=O,inactive
5,Cc1noc(C)c1S(=O)(=O)Nc1ccc2c(c1)C(=O)N([C@H](C)CO)C[C@@H](C)[C@@H](CN(C)C(=O)NC(C)C)O2,inactive
6,C[C@H](CO)N1C[C@H](C)[C@@H](CN(C)S(=O)(=O)c2cn(C)cn2)Oc2ccc(NS(=O)(=O)c3ccccc3)cc2CC1=O,inactive
7,C[C@@H]1CN([C@@H](C)CO)C(=O)c2cccc(NS(=O)(=O)c3cn(C)cn3)c2O[C@@H]1CN(C)CC1CC1,inactive
8,C[C@@H]1CN([C@H](C)CO)S(=O)(=O)c2ccc(C#Cc3ccccc3)cc2O[C@@H]1CN(C)S(C)(=O)=O,inactive
9,CN1C(=O)c2cc(NC(=O)Cc3cccs3)ccc2OC[C@H]2O[C@H](CC(=O)NCCc3ccncc3)CC[C@H]21,inactive
10,CS(=O)(=O)N1C[C@@H](O)COC[C@H]2O[C@@H](CC(=O)NCc3ccccc3)CC[C@@H]21,inactive
11,C[C@@H]1CN([C@H](C)CO)C(=O)Cc2cc(NC(=O)CCN3CCOCC3)ccc2O[C@@H]1CN(C)C(=O)NC1CCCCC1,inactive
12,C[C@H]1CN([C@@H](C)CO)S(=O)(=O)c2ccc(C#Cc3ccc(F)cc3)cc2O[C@H]1CN(C)C(=O)c1ccccn1,inactive
13,COc1ccc(S(=O)(=O)Nc2ccc3c(c2)C(=O)N([C@@H](C)CO)C[C@H](C)[C@@H](CN(C)C(=O)Nc2ccc4c(c2)OCO4)OCCCC[C@H](C)O3)cc1,inactive
